Test results published in PubChem BioAssay AID463173 (ICCB-Longwood Screening Facility, Harvard Medical School, 2010).
Out of some 52,000 compounds screened, about 4,300 (8.3%) were called active. No stated cut-off is given here; in the data, active means survival mostly below about 52% (no sharp cut-off); inactive means mostly above about 56%. The list shows a part of the results.

Each compound was assayed on DeltatarO mutant (assay: growth inhibition of S. aureus wild type versus tarO mutant, primary screen, teichoic acid synthesis inhibitors, RN4220, OD600 (AID 463173)). Settings: OD600, 18 h, stronger effect = lower value, screened at 18.75 µg/mL (by protocol).

SMILES | survival
Cc1ccc(-c2nnc3c4ccccc4c(C)nn23)cc1NC(=O)c1cccc(Br)c1 | inactive: 99%
COc1ccc(NC(=O)C2CCCN(S(=O)(=O)c3cccc4nonc34)C2)cc1Cl (stereo not drawn) | inactive: 72%
COc1ccccc1NC(=O)CSc1nc2c(oc3ccccc32)c(=O)n1Cc1ccco1 | inactive: 59%
O=C(NCc1cccc(Cl)c1)NCc1noc2ccccc12 | inactive: 60%
COc1cccc(N2CCN(c3ncnc4c3c(-c3ccccc3)cn4-c3ccc(F)cc3)CC2)c1 | inactive: 78%
CCCCN(CC)C(=O)CCCn1c(=O)c2cccn2c2ccccc21 | active: 49%
COc1cc(S(=O)(=O)Nc2ccccn2)ccc1Cl | inactive: 108%
CC(Oc1ccc(Cl)cc1Cl)C(=O)N1CCN(C(=O)c2ccco2)CC1 (stereo not drawn) | inactive: 99%
NS(=O)(=O)c1ccccc1 | inactive: 97%
COc1ccc(-c2nc(S(=O)(=O)c3ccc(C)cc3)c(N3CCCCC3)o2)cc1 | inactive: 54%
Cc1ccc(CNC(=O)CN2C(=O)CC(c3ccc(C)c(C)c3)=Nc3ccccc32)cc1 | active: 52%
Cc1cc(N(C(=O)c2cnccn2)C(C(=O)NCc2ccccc2)c2cccs2)ccc1-n1cnnn1 (stereo not drawn) | inactive: 74%
CCCCOC(=O)c1ccc(Nc2ncnc3c2cnn3-c2cccc(C)c2)cc1 | inactive: 74%
Cc1cccc(CN2CCC(CNc3ncnc4onc(-c5ccc(Cl)cc5)c34)CC2)c1 | inactive: 98%
Cc1cc(C(C)(C)C)oc1C(=O)N(CC(=O)NC1CCCC1)c1ccc(F)cc1 | inactive: 77%
O=C(CNCc1ccccc1F)Nc1ccc(N2CCCC2)cc1 | inactive: 102%
COc1ccc(-c2nc(SCC(=O)NCc3ccccc3Cl)n[nH]2)cc1 | inactive: 87%
COc1ccc(CNC(=O)CCNS(=O)(=O)c2ccc3c(c2)CCCC(=O)N3)cc1 | inactive: 119%
Cc1ccc(Cn2c(CCNC(=O)C(C)C)nc3ccccc32)cc1 | inactive: 78%
Cc1ccc(Cl)cc1N(C)C(=O)C1CCCN(c2ncnc3onc(-c4ccc(F)cc4)c23)C1 (stereo not drawn) | inactive: 73%

SMILES | survival
CC(C)Cn1c(-c2ccc(Cl)cc2)cnc1SCC(=O)N1CCCC1 | inactive: 65%
Cc1nn(-c2ccc(N3CCCC3)nn2)c(C)c1CCC(=O)N1CCN(c2ccccc2F)CC1 | inactive: 76%
O=C(C1CCC1)N1CCc2cc(S(=O)(=O)NCCc3ccccc3)ccc21 | inactive: 107%
O=C(Cn1nc(-c2ccc(Cl)cc2)ccc1=O)NCCc1ccccc1 | inactive: 73%
CC(C(=O)Nc1ccccc1)N1C(=O)c2ccccc2C1=O (stereo not drawn) | inactive: 88%
CCC(=O)Nc1cccc(NC(=O)CSc2nnnn2C(C)C)c1 | inactive: 94%
CCOC(=O)CCc1c(C)nc2c(c(C)nn2-c2ccc(C)cc2)c1C | inactive: 120%
COc1ccc(C2=Nn3c([n+](C)c4ccccc43)SC2)cc1 | active: 0%
COCCNC(=O)c1[nH]c2cc(C)ccc2c1Sc1ccc(Cl)cc1 | inactive: 89%
O=C(Nc1cccc(-c2nc3ccccc3o2)c1)c1cccc2c(Cl)cccc12 | inactive: 46%
Cc1ccc2nc(COc3cccc(NC(=O)COc4ccc(F)cc4)c3)cc(=O)n2c1 | inactive: 63%
Cc1ccc(NC(=O)CCS(=O)(=O)c2ccc3c(c2)oc(=O)n3C)c(Br)c1 | inactive: 80%
Cc1cc(C)cc(-n2c(SCC(=O)NC3CCCCC3)nc3c([nH]c4ccccc43)c2=O)c1 | inactive: 94%
N#C/C(=C\c1cn(CC(=O)N2CCCC2)c2ccccc12)C(=O)NCc1ccc2c(c1)OCO2 | inactive: 66%
Cc1c(Cl)cccc1Nc1nn2c(=O)c3ccc(C(=O)N(C)Cc4ccccc4)cc3nc2s1 | inactive: 81%
COc1ccc(NC(=O)c2cc3c(C)nn(-c4ccccc4)c3s2)c(OC)c1 | inactive: 59%
c1cncc(C2=Nc3ccccc3C(c3cccnc3)=NN2)c1 | inactive: 102%
O=C(CN1CCN(C2CCCCC2)CC1)N(c1ccccc1)c1ccc(O)cc1 | inactive: 96%
O=c1[nH]c(SCc2c(F)cccc2Cl)nc2c1CCCC2 | inactive: 56%
COc1ccc(-c2nc(CSCC(=O)N3CCN(c4ccccc4)CC3)c(C)o2)cc1 | inactive: 60%

SMILES | survival
COc1ccc(N2CCN(C(=O)CSCc3ccc(C)cc3)CC2)cc1 | inactive: 124%
CC(=O)c1cccc(NS(=O)(=O)c2cccc(S(=O)(=O)c3ccc(Br)cc3)c2)c1 | inactive: 55%
O=C(NCc1ccc2c(c1)CCN2C(=O)c1ccncc1)c1ccccc1F | inactive: 117%
COc1cccc(OCCn2c(-c3ccc(Br)cc3)nc3ccccc3c2=O)c1 | inactive: 82%
O=C(Nc1ccccc1F)NC1CCN(Cc2nnnn2Cc2ccc(F)cc2)CC1 | inactive: 96%
COC(=O)c1ccccc1NC(=O)CCS(=O)(=O)c1nc(-c2ccc3c(c2)OCO3)cc(C(F)(F)F)n1 | inactive: 118%
COc1ccccc1CNc1ncnc2c1nnn2C | inactive: 70%
CCOCCCn1c(=N)c(S(=O)(=O)c2ccc(Cl)cc2)cc2c(=O)n3cccc(C)c3nc21 | inactive: 65%
O=C(COc1ccccc1)OCc1cc(=O)n2nc(-c3cccs3)sc2n1 | inactive: 88%
CC1=CC(c2ccccc2)=Nc2ccc(C)cc2N1 | inactive: 102%
Cc1c(Cl)cccc1NC(=O)c1cc2nc(-c3ccc4c(c3)OCO4)cc(C(F)(F)F)n2n1 | inactive: 51%
CCc1nn(CC(=O)NC(C)CC)c(=O)c2cc3occc3n12 (stereo not drawn) | inactive: 89%
COc1ccc(CNC(=O)c2cnc3ccc(C)cn3c2=O)cc1 | inactive: 109%
Cc1ccccc1NC(=O)c1ccc(N(Cc2ccccc2)S(C)(=O)=O)cc1 | inactive: 66%
CC(C)(C)OC(=O)N1CCC(c2c(C(=O)Nc3ccc4c(c3)OCO4)cnn2-c2ccccc2)CC1 | inactive: 78%
COc1ccc(-n2nc(C(=O)Nc3cc(C)ccn3)c3c4ccccc4n(C)c3c2=O)cc1Cl | inactive: 88%
CC(=O)Nc1nonc1-c1nnc(SCc2ccccc2)n1C | inactive: 44%
CCOc1ccc(-c2cc(C(=O)NCCc3ccc(OC)c(OC)c3)[nH]n2)cc1 | inactive: 77%
